# The list shows a part of the results.
# B1: Arath Fbox LD (Arabidopsis thaliana) (protein)
# chain: EFSVWLEKASGKRCLMLSAMNLSIIWGDNPQYWQWIPIPESRFEKVAKLRDVCWFEIRGRTNTRVLSPRTRYSAYIVFKGVDKCYGFQNVAIEAAVGVVGQEPSRRLICFSEAIRRGRRNVVKPKQREDGWMEIELGEFFNDGGIMDNDEIEMSALETKQLNRKCGLIIQGIEIRPAKILAAASFLEQKLISEEDLNSAVDHHHHHH
# Legend:
# Assay in all cases: glycan array binding signal (z-score within array); higher = stronger binding
# Settings in all cases: glycan notation: IUPAC condensed, linker removed
# [1] = target: Fuc(a1-2)Gal(b1-4)GlcNAc(b1-3)Gal(b1-4)GlcNAc(b1-3)Gal(b1-4)GlcNAc
# Procedure, shortened: (§1)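 Arrays were curated from the Consortium for Functional Glycomics database, 3228 in total, and kept only where the protein sequence was available. Binding is expressed as a within-array Z-score. This score was averaged across arrays of the same protein sequence at different concentrations or buffers and across linkers, and negative values can be read as non-binding.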
# [2] = target: Fuc(a1-2)Gal(b1-4)GlcNAc(b1-3)GalNAc
# Procedure, shortened: as §1
# [3] = target: Fuc(a1-2)Gal(b1-4)GlcNAc(b1-3)[Fuc(a1-2)Gal(b1-4)GlcNAc(b1-6)]GalNAc
# Procedure, shortened: as §1
# [4] = target: Fuc(a1-2)Gal(b1-4)GlcNAc(b1-3)[Fuc(a1-3)[Gal(b1-4)]GlcNAc(b1-6)]Gal(b1-4)Glc
# Procedure, shortened: as §1
# [5] = target: Fuc(a1-2)Gal(b1-4)GlcNAc(b1-6)GalNAc
# Procedure, shortened: as §1
# [6] = target: Fuc(a1-2)Gal(b1-4)GlcNAc6S
# Procedure, shortened: as §1
# [7] = target: Fuc(a1-2)Gal(b1-4)[Fuc(a1-3)]GlcNAc
# Procedure, shortened: as §1
# [8] = target: Fuc(a1-2)Gal(b1-4)[Fuc(a1-3)]GlcNAc(b1-2)Man(a1-3)[Fuc(a1-2)Gal(b1-4)[Fuc(a1-3)]GlcNAc(b1-2)Man(a1-6)]Man(b1-4)GlcNAc(b1-4)[Fuc(a1-6)]GlcNAc
# Procedure, shortened: as §1
# [9] = target: Fuc(a1-2)Gal(b1-4)[Fuc(a1-3)]GlcNAc(b1-2)[Fuc(a1-2)Gal(b1-4)[Fuc(a1-3)]GlcNAc(b1-4)]Man(a1-3)[Fuc(a1-2)Gal(b1-4)[Fuc(a1-3)]GlcNAc(b1-2)Man(a1-6)]Man(b1-4)GlcNAc(b1-4)GlcNAc
# Procedure, shortened: as §1
# [10] = target: Fuc(a1-2)Gal(b1-4)[Fuc(a1-3)]GlcNAc(b1-3)Gal(b1-4)[Fuc(a1-3)]GlcNAc
# Procedure, shortened: as §1
# [11] = target: Fuc(a1-2)Gal(b1-4)[Fuc(a1-3)]GlcNAc(b1-3)Gal(b1-4)[Fuc(a1-3)]GlcNAc(b1-3)Gal(b1-4)[Fuc(a1-3)]GlcNAc
# Procedure, shortened: as §1
# [12] = target: Fuc(a1-2)Gal(b1-4)[Fuc(a1-3)]GlcNAc(b1-3)GalNAc
# Procedure, shortened: as §1
# [13] = target: Fuc(a1-2)Gal(b1-4)[Fuc(a1-3)]GlcNAc(b1-3)[Neu5Ac(a2-6)Gal(b1-4)GlcNAc(b1-6)]Gal(b1-4)Glc
# Procedure, shortened: as §1
# [14] = target: Fuc(a1-2)Gal3S(b1-4)GlcNAc
# Procedure, shortened: as §1
# [15] = target: Fuc(a1-2)Gal6S(b1-3)GlcNAc
# Procedure, shortened: as §1
# [16] = target: Fuc(a1-2)Gal6S(b1-3)GlcNAc6S
# Procedure, shortened: as §1
# [17] = target: Fuc(a1-2)Gal6S(b1-4)Glc
# Procedure, shortened: as §1
# [18] = target: Fuc(a1-2)Gal6S(b1-4)Glc6S
# Procedure, shortened: as §1
# [19] = target: Fuc(a1-2)[Gal(a1-3)]Gal
# Procedure, shortened: as §1
# [20] = target: Fuc(a1-2)[Gal(a1-3)]Gal(b1-3)GalNAc
# Procedure, shortened: as §1
# [21] = target: Fuc(a1-2)[Gal(a1-3)]Gal(b1-3)GalNAc(b1-3)Gal(a1-4)Gal(b1-4)Glc
# Procedure, shortened: as §1
# [22] = target: Fuc(a1-2)[Gal(a1-3)]Gal(b1-3)GlcNAc
# Procedure, shortened: as §1
# [23] = target: Fuc(a1-2)[Gal(a1-3)]Gal(b1-3)GlcNAc(b1-2)Man(a1-3)[Fuc(a1-2)[Gal(a1-3)]Gal(b1-3)GlcNAc(b1-2)Man(a1-6)]Man(b1-4)GlcNAc(b1-4)GlcNAc
# Procedure, shortened: as §1
# [24] = target: Fuc(a1-2)[Gal(a1-3)]Gal(b1-3)GlcNAc(b1-2)Man(a1-3)[Fuc(a1-2)[Gal(a1-3)]Gal(b1-3)GlcNAc(b1-2)Man(a1-6)]Man(b1-4)GlcNAc(b1-4)[Fuc(a1-6)]GlcNAc
# Procedure, shortened: as §1
# [25] = target: Fuc(a1-2)[Gal(a1-3)]Gal(b1-3)GlcNAc(b1-3)GalNAc
# Procedure, shortened: as §1
# [26] = target: Fuc(a1-2)[Gal(a1-3)]Gal(b1-3)GlcNAc(b1-6)GalNAc
# Procedure, shortened: as §1
# [27] = target: Fuc(a1-2)[Gal(a1-3)]Gal(b1-4)Glc
# Procedure, shortened: as §1
# [28] = target: Fuc(a1-2)[Gal(a1-3)]Gal(b1-4)GlcNAc
# Procedure, shortened: as §1
# [29] = target: Fuc(a1-2)[Gal(a1-3)]Gal(b1-4)GlcNAc(b1-2)Man
# Procedure, shortened: as §1
# [30] = target: Fuc(a1-2)[Gal(a1-3)]Gal(b1-4)GlcNAc(b1-2)Man(a1-3)[Fuc(a1-2)[Gal(a1-3)]Gal(b1-4)GlcNAc(b1-2)Man(a1-6)]Man(b1-4)GlcNAc(b1-4)GlcNAc
# Procedure, shortened: as §1
# [31] = target: Fuc(a1-2)[Gal(a1-3)]Gal(b1-4)GlcNAc(b1-2)Man(a1-3)[Fuc(a1-2)[Gal(a1-3)]Gal(b1-4)GlcNAc(b1-2)Man(a1-6)]Man(b1-4)GlcNAc(b1-4)[Fuc(a1-6)]GlcNAc
# Procedure, shortened: as §1
# [32] = target: Fuc(a1-2)[Gal(a1-3)]Gal(b1-4)GlcNAc(b1-3)GalNAc
# Procedure, shortened: as §1
# [33] = target: Fuc(a1-2)[Gal(a1-3)]Gal(b1-4)GlcNAc(b1-3)[Fuc(a1-2)[Gal(a1-3)]Gal(b1-4)GlcNAc(b1-6)]GalNAc
# Procedure, shortened: as §1
# [34] = target: Fuc(a1-2)[Gal(a1-3)]Gal(b1-4)GlcNAc(b1-6)GalNAc
# Procedure, shortened: as §1
# [35] = target: Fuc(a1-2)[Gal(a1-3)]Gal(b1-4)[Fuc(a1-3)]Glc
# Procedure, shortened: as §1
# [36] = target: Fuc(a1-2)[Gal(a1-3)]Gal(b1-4)[Fuc(a1-3)]GlcNAc
# Procedure, shortened: as §1
# [37] = target: Fuc(a1-2)[Gal(a1-3)]Gal(b1-4)[Fuc(a1-3)]GlcNAc(b1-3)GalNAc
# Procedure, shortened: as §1
# [38] = target: Fuc(a1-2)[Gal(a1-4)]Gal(b1-4)GlcNAc
# Procedure, shortened: as §1
# [39] = target: Fuc(a1-2)[GalNAc(a1-3)]Gal
# Procedure, shortened: as §1
# [40] = target: Fuc(a1-2)[GalNAc(a1-3)]Gal(b1-3)GalNAc(a1-3)[Fuc(a1-2)]Gal(b1-4)GlcNAc
# Procedure, shortened: as §1
# [41] = target: Fuc(a1-2)[GalNAc(a1-3)]Gal(b1-3)GalNAc(b1-3)Gal(a1-4)Gal(b1-4)Glc
# Procedure, shortened: as §1
# [42] = target: Fuc(a1-2)[GalNAc(a1-3)]Gal(b1-3)GlcNAc
# Procedure, shortened: as §1
# [43] = target: Fuc(a1-2)[GalNAc(a1-3)]Gal(b1-3)GlcNAc(b1-2)Man(a1-3)[Fuc(a1-2)[GalNAc(a1-3)]Gal(b1-3)GlcNAc(b1-2)Man(a1-6)]Man(b1-4)GlcNAc(b1-4)GlcNAc
# Procedure, shortened: as §1
# [44] = target: Fuc(a1-2)[GalNAc(a1-3)]Gal(b1-3)GlcNAc(b1-2)Man(a1-3)[Fuc(a1-2)[GalNAc(a1-3)]Gal(b1-3)GlcNAc(b1-2)Man(a1-6)]Man(b1-4)GlcNAc(b1-4)[Fuc(a1-6)]GlcNAc
# Procedure, shortened: as §1
# [45] = target: Fuc(a1-2)[GalNAc(a1-3)]Gal(b1-3)GlcNAc(b1-3)GalNAc
# Procedure, shortened: as §1
binder,measurement,setting,value
B1,glycan array binding signal (z-score),[1],-0.605
same,glycan array binding signal (z-score),[2],-0.345
same,glycan array binding signal (z-score),[3],0.04
same,glycan array binding signal (z-score),[4],-0.533
same,glycan array binding signal (z-score),[5],-0.486
same,glycan array binding signal (z-score),[6],-0.426
same,glycan array binding signal (z-score),[7],1.27
same,glycan array binding signal (z-score),[8],-0.566
same,glycan array binding signal (z-score),[9],-0.135
same,glycan array binding signal (z-score),[10],-0.378
same,glycan array binding signal (z-score),[11],-0.077
same,glycan array binding signal (z-score),[12],-0.272
same,glycan array binding signal (z-score),[13],-0.398
same,glycan array binding signal (z-score),[14],-0.625
same,glycan array binding signal (z-score),[15],-0.537
same,glycan array binding signal (z-score),[16],0.016
same,glycan array binding signal (z-score),[17],0.262
same,glycan array binding signal (z-score),[18],-0.402
same,glycan array binding signal (z-score),[19],-0.099
same,glycan array binding signal (z-score),[20],0.53
same,glycan array binding signal (z-score),[21],-0.57
same,glycan array binding signal (z-score),[22],1.92
same,glycan array binding signal (z-score),[23],-0.506
same,glycan array binding signal (z-score),[24],-0.248
same,glycan array binding signal (z-score),[25],-0.413
same,glycan array binding signal (z-score),[26],-0.254
same,glycan array binding signal (z-score),[27],-0.157
same,glycan array binding signal (z-score),[28],-0.058
same,glycan array binding signal (z-score),[29],-0.448
same,glycan array binding signal (z-score),[30],0.824
same,glycan array binding signal (z-score),[31],-0.172
same,glycan array binding signal (z-score),[32],0.04
same,glycan array binding signal (z-score),[33],-0.16
same,glycan array binding signal (z-score),[34],-0.38
same,glycan array binding signal (z-score),[35],-0.421
same,glycan array binding signal (z-score),[36],-0.333
same,glycan array binding signal (z-score),[37],0.922
same,glycan array binding signal (z-score),[38],-0.285
same,glycan array binding signal (z-score),[39],0.243
same,glycan array binding signal (z-score),[40],0.405
same,glycan array binding signal (z-score),[41],-0.608
same,glycan array binding signal (z-score),[42],-0.144
same,glycan array binding signal (z-score),[43],-0.597
same,glycan array binding signal (z-score),[44],-0.214
same,glycan array binding signal (z-score),[45],-0.465
